Our source for the binding signal values is PMC9911399, “Two distinct binding modes provide the RNA-binding protein RbFox with extraordinary sequence specificity”.

Substitutions are numbered along the chain they refer to; changes in the protein carry UniProt numbers. The list shows a part of the results.

T1: RBFOX1 RRM (Homo sapiens, UniProt Q9NWB1 109-208)
T1 sequence: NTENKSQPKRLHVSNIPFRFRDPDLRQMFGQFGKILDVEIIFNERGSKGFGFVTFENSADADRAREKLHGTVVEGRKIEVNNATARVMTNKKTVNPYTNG

B1: GCUUUCG (DNA:RNA)
RNA: GGGAGACCGGAAUUCAGAUUGUCCGCUUUCGUUAAAUCCCGUCGUAGCCACCA
DNA 1: CAATCTGAATTCCGGTCTCCC
DNA 2: TGGTGGCTACGACGGGATT
B2: GUUGAUG (DNA:RNA)
RNA: B1 RNA with C26U, U28G, U29A, C30U
DNA 1: CAATCTGAATTCCGGTCTCCC
DNA 2: TGGTGGCTACGACGGGATT
B3: GCGGGGU (DNA:RNA)
RNA: B1 RNA with U27G, U28G, U29G, C30G, G31U
DNA 1: CAATCTGAATTCCGGTCTCCC
DNA 2: TGGTGGCTACGACGGGATT
B4: UACUUCC (DNA:RNA)
RNA: B1 RNA with G25U, C26A, U27C, G31C
DNA 1: CAATCTGAATTCCGGTCTCCC
DNA 2: TGGTGGCTACGACGGGATT
B5: CCAUAAG (DNA:RNA)
RNA: B1 RNA with G25C, U27A, U29A, C30A
DNA 1: CAATCTGAATTCCGGTCTCCC
DNA 2: TGGTGGCTACGACGGGATT
B6: GCACCCG (DNA:RNA)
RNA: B1 RNA with U27A, U28C, U29C
DNA 1: CAATCTGAATTCCGGTCTCCC
DNA 2: TGGTGGCTACGACGGGATT
B7: ACGGCCG (DNA:RNA)
RNA: B1 RNA with G25A, U27G, U28G, U29C
DNA 1: CAATCTGAATTCCGGTCTCCC
DNA 2: TGGTGGCTACGACGGGATT
B8: UUUUCCC (DNA:RNA)
RNA: B1 RNA with G25U, C26U, U29C, G31C
DNA 1: CAATCTGAATTCCGGTCTCCC
DNA 2: TGGTGGCTACGACGGGATT
B9: GAGGGUA (DNA:RNA)
RNA: B1 RNA with C26A, U27G, U28G, U29G, C30U, G31A
DNA 1: CAATCTGAATTCCGGTCTCCC
DNA 2: TGGTGGCTACGACGGGATT

In this experiment the target is T1, RBFOX1 RRM. The experiment in a line: EMSA; HiTS-Eq, 1 nM pool, 10 min; buffer printed only for the single-RNA assays: 10 mM Tris pH 7.5, 150 mM NaCl, 3.4 mM EDTA, 0.001% NP-40, 30 C. The conditions noted are these: tags: His6 N-terminal (pET28a); label: 5' 32P. Put shortly:
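These values rest on relative association constants, computed from read-count changes of each RNA species versus the control reaction and normalised to the cognate motif. Reads came from free RNA recovered by 8% native PAGE after purified RbFox RRM (wild type or mutant) at increasing concentrations was equilibrated for 10 min in 50 µL with 1 nM of a 5′-radiolabelled pool with 7 randomized nucleotides and DNA-annealed flanks.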
In general terms: A gel shift assay detects complexes by their altered migration in electrophoresis.
B1: the binding signal was 0.0216 KA relative to UGCAUGU.

Consider B2, for which the binding signal is 0.0196 KA relative to UGCAUGU.

As to B3, the binding signal is 0.0285 KA relative to UGCAUGU.

On to B4, for which the binding signal was 0.00478 KA relative to UGCAUGU.

Consider B5, for which the binding signal was 0.00746 KA relative to UGCAUGU.

For B6, the binding signal is 0.00754 KA relative to UGCAUGU.

In the case of B7, the binding signal is 0.016 KA relative to UGCAUGU.

In the case of B8, the binding signal is 0.00684 KA relative to UGCAUGU.

Consider B9, for which the binding signal was 0.0154 KA relative to UGCAUGU.
